Some of the results follow. At the low end of the ranking the order means little.

Binding signal data for 172 sequences are collected here from article PMC6212790.

For the experiment, the target named is T1, GST-Rok-C97-191 (UniProt O34857).
T1 sequence: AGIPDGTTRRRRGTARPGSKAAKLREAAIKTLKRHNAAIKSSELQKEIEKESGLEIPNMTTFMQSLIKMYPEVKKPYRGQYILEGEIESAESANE
The experiment in a line: protein binding microarray.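 Further: rank score from −0.5 (least bound) to 0.5 (best bound).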 To be noted: Rok is a gene silencer of Bacillus subtilis; high values mean tight binding; most listed sequences are background and not binding sites; double strand, one strand shown.
ATCCGTAA returned a binding signal of -0.0485 E-score. In the case of ATAACGGA it was -0.0509 E-score. With TAACGGAA the figure was 0.0791 E-score; with AGGCATCC, -0.109 E-score.

Sequence GCGCTCCA gave a binding signal of -0.26 E-score. On to CAGGGTGA, for which the binding signal is -0.181 E-score. In the case of CTGAAAAG it was 0.0606 E-score. With AACAGCCC the figure was -0.177 E-score; with AGTCCTTC, -0.125 E-score; with AGGGAGCG, -0.258 E-score. With CTAGTTTC the figure was 0.422 E-score; with GGGGACTA, -0.0683 E-score.

In turn, ACTGAAGA showed a binding signal of -0.0913 E-score. On to AAATAGTG, for which the binding signal was determined as 0.215 E-score. Sequence GAGTAGGC showed a binding signal of -0.0165 E-score. The sequence ACTGATGG displayed a binding signal of -0.176 E-score. In the case of GGGTCTCA it was -0.222 E-score; in that of CCAGTCTC, -0.14 E-score. With ATTTGGGC the figure was 0.0587 E-score; with CAGGATGG, -0.0625 E-score. In the case of CAATACCG it was 0.121 E-score; in that of ACGTTGGC, -0.187 E-score; in that of CACGAAAC, 0.146 E-score.

For the sequence CGGCGTAA, the binding signal is -0.0586 E-score.

TGCCCCCA: the binding signal was -0.303 E-score.

In turn, CGTAGCCC showed a binding signal of -0.128 E-score. In the case of CAAACAGC it was -0.206 E-score; in that of GCGGGGTA, -0.137 E-score; in that of CCCTCGTC, -0.23 E-score. In the case of CGTACTCC it was -0.232 E-score; in that of AATCAAGA, 0.0438 E-score; in that of GGTGGTCA, -0.312 E-score. Consider AAGGAACA, for which the binding signal was -0.0989 E-score. With ACCCATAC the figure was 0.107 E-score. With ACACTATG the figure was 0.237 E-score; with CGCGCTAA, 0.329 E-score.

The sequence ATAAGATG yielded a binding signal of -0.0116 E-score.

With CAATTTGG, the binding signal was -0.0196 E-score.

In turn, CATCTCCC yielded a binding signal of -0.194 E-score. As to ATGCCGCG, the binding signal was -0.151 E-score. With CTCTGCTA the figure was -0.145 E-score; with CACCGTGG, -0.246 E-score. With CTTCTAGA the figure was -0.0324 E-score; with AGATCCCG, 0.129 E-score; with CATCACGC, -0.168 E-score.

Regarding ACTAAAAA, the binding signal is 0.26 E-score. In the case of CAAATTCG it was 0.0315 E-score. In the case of CCACGTCC it was -0.259 E-score. For CCCGGGAG, the binding signal is -0.222 E-score. With AATATGGG the figure was 0.0369 E-score; with ACTATAGC, 0.207 E-score.

The sequence AGTGTCGA had a binding signal of 0.0223 E-score. With AACCCGAC the figure was -0.183 E-score. Sequence ACCCTGTA showed a binding signal of 0.0602 E-score.

In the case of AACACCCT, the binding signal was -0.0153 E-score. The sequence CTCTGCCC displayed a binding signal of -0.27 E-score. With CCCTTGCC the figure was -0.364 E-score; with ATCAGTGG, -0.0342 E-score; with ACAAAATG, 0.0786 E-score.

For the sequence AAAGATGG, the binding signal was 0.0619 E-score.

As for CATACACA, the binding signal worked out at 0.12 E-score.

ACGGGCCG: the binding signal is -0.271 E-score. With ATGTGGAC the figure was 0.115 E-score.

Sequence TAACTAAA came in with a binding signal of 0.23 E-score. With GACCTCAA the figure was -0.241 E-score. With GTCTGCAA the figure was -0.144 E-score. In the case of AAGGGAAT it was -0.106 E-score; in that of ACCTGATA, 0.0129 E-score; in that of GATGGCAC, -0.173 E-score. CCGTTAGC returned a binding signal of -0.185 E-score. With AGCAAACG the figure was 0.0529 E-score; with GATGTAAA, 0.164 E-score. In the case of GACAATCC it was -0.047 E-score; in that of AGCCTTAA, -0.125 E-score. With CCTAAAAA the figure was 0.11 E-score. The sequence GAATGCTA returned a binding signal of 0.131 E-score. With GTTAGTCA the figure was -0.00135 E-score. With ACATCCCG the figure was -0.0956 E-score. With ACTCAGCA the figure was -0.00317 E-score; with ACTTAAGC, -0.0144 E-score; with GAGGAAAA, -0.0709 E-score. For the sequence CCTATGCG, the binding signal was -0.247 E-score.

With AATCAGAC, the binding signal is -0.0483 E-score. In the case of ACATACCA it was 0.237 E-score; in that of GGCATAAC, -0.00834 E-score. In the case of CACGATCA it was -0.0988 E-score; in that of AGGGATGG, -0.218 E-score; in that of CAGCAAGC, -0.224 E-score.

With CTTCATTC, the binding signal was -0.025 E-score. In the case of CCAACTTA it was 0.00496 E-score; in that of GGCACTTA, -0.0815 E-score.

Turning to GCCTGAAC, the binding signal was -0.187 E-score. With GGTGGCGA the figure was -0.0613 E-score; with CGCATTAC, 0.0403 E-score; with CCCATCGA, -0.219 E-score. With CAGAAGAA the figure was 0.0124 E-score.

The sequence CATCTCAG yielded a binding signal of -0.0918 E-score. Sequence GATTGCGC yielded a binding signal of -0.0915 E-score. With AGACAACG the figure was -0.0922 E-score; with ACAGGGGA, -0.24 E-score; with CATGGGAA, -0.129 E-score. With ACCCCCAC the figure was -0.292 E-score. In the case of AGGCCTAT it was -0.0591 E-score; in that of ATATCGTG, 0.119 E-score. As for CAATTGAC, the binding signal worked out at 0.132 E-score. With CCGTCGCA the figure was -0.28 E-score; with ACGCCTCG, -0.194 E-score. As for ACTGGAGC, the binding signal was -0.231 E-score. In the case of CGAGTACC it was -0.0938 E-score; in that of CGGGGCCC, -0.321 E-score. In the case of TGGCAGAA it was -0.0188 E-score; in that of ATGGCGGC, -0.268 E-score. With ATCCCTAG the figure was -0.0443 E-score. In turn, CACAGGAC gave a binding signal of -0.113 E-score. In the case of CTCCCGGC it was -0.174 E-score. With ATAGATGG the figure was 0.192 E-score. Sequence AGAGCCAA registered a binding signal of -0.0861 E-score. In turn, ACACTGCC displayed a binding signal of -0.236 E-score. With ATAACATC the figure was 0.00847 E-score; with AGGGCCAG, -0.0808 E-score. With ACACTAGA the figure was 0.179 E-score; with CAAGAGTG, 0.0414 E-score; with GCCCGTAC, -0.243 E-score. For GCAGTCGC, the binding signal is -0.288 E-score. For CCCGCGGA, the binding signal is -0.25 E-score. Turning to CAGTTCGC, the binding signal is -0.261 E-score. With AATACACT the figure was 0.155 E-score; with GACGTCGC, -0.132 E-score.

The sequence GTCTCTTA registered a binding signal of -0.165 E-score.

AACGCCTG: the binding signal is -0.256 E-score. In the case of CATATCGA it was 0.0885 E-score. With CCGGCAGC the figure was -0.146 E-score; with AAGTCTCA, -0.248 E-score; with GACCTTAC, -0.062 E-score. With ATTTAAAA the figure was -0.0263 E-score; with TAGGGGCA, -0.0802 E-score; with AATTGTTC, 0.273 E-score. For the sequence CTGAAAGA, the binding signal was found to be 0.00993 E-score. In the case of CTTTGCCC it was -0.0468 E-score.

Consider CACAGGCC, for which the binding signal was -0.171 E-score. ATCTGCTA had a binding signal of 0.108 E-score. In the case of GGATGTAC it was 0.275 E-score. With AAATCGCC the figure was 0.0495 E-score; with ACTCGACG, -0.0801 E-score; with CTCCGGAG, -0.127 E-score. In the case of ACAACCTC it was -0.00502 E-score; in that of CCTATGAC, 0.091 E-score; in that of ATATAGCA, 0.3 E-score. The sequence CCATTCGA registered a binding signal of 0.0586 E-score. With CGGTGCAG the figure was -0.0983 E-score; with CAACTGAG, -0.0688 E-score. With ACCCGACA the figure was -0.156 E-score. Take CCTCAATC: the binding signal is -0.119 E-score. In the case of ACGGAGGC, the binding signal is -0.287 E-score.

AAACCTTA: the binding signal is -0.00919 E-score. In the case of AGCTAAAT it was 0.23 E-score; in that of ATCAAAGG, -0.041 E-score. With GTTATTTA the figure was 0.273 E-score; with ATCGCCAA, 0.00102 E-score. With AATGCATC the figure was 0.0583 E-score.

For CGTATTTA, the binding signal turned out to be 0.318 E-score. With ATTAACAA the figure was 0.268 E-score. With GAGCTTAC the figure was -0.189 E-score. In the case of AAAGAAGG it was -0.184 E-score; in that of AAGTGCGT, -0.117 E-score. The sequence CCAGTATC came in with a binding signal of -0.0604 E-score. With ACCCCTAG the figure was -0.0165 E-score; with CGCGGCTA, -0.127 E-score.

Take CAGAACCA: the binding signal is -0.0109 E-score. With CGATTGCG the figure was -0.0899 E-score; with ATTATTAG, 0.325 E-score. TAATTATA had a binding signal of 0.386 E-score.
